Results: patent US9598497B2, “RSPO3 binding agents and uses thereof” (OncoMed Pharmaceuticals, Inc., priority 2012, dated 2017)

Key:
[1] = system: RSPO3-induced β-catenin signaling; test: TOPflash 6xTCF-luciferase reporter assay in HEK-293 cells with WNT3a and RSPO3; format: cell-based; settings: WNT3a + human RSPO3, antibody 20 to 0.006 μg/ml, compared with parental 131R003, FIG. 4
Description: HEK-293 cells were transfected with a 6×TCF-luciferase reporter vector (TOPflash, Millipore, Billerica, Mass.). After 24-48 hrs, the transfected HEK-293 cells were incubated with a combination of WNT3a (5 ng/ml) and human RSPO3 (10 ng/ml, R&D BioSystems, Minneapolis, Minn.) in the presence of anti-RSPO3 antibodies 131R002 and 131R003. Antibodies 131R002 and 131R003 were added to the cells in 4-fold serial dilutions from 20 μg/ml to 0.02 μg/ml. As controls, cells were incubated with a combination of WNT3a and RSPO3, WNT3a only, RSPO3 only, or with no addition. The cells were incubated for 16 hours and luciferase activity was measured using Steady-Glo® Luciferase Assay System according to the manufacturer's instructions (Promega, Madison, Wis.).
HEK-293 cells were transfected with a 6×TCF-luciferase reporter vector (TOPflash, Millipore, Billerica, Mass.). […] The cells were incubated for 16 hours and luciferase activity was measured using Steady-Glo® Luciferase Assay System according to the manufacturer's instructions (Promega, Madison, Wis.).
HEK-293 cells were transfected with a 6×TCF-luciferase reporter vector (TOPflash, Millipore, Billerica, Mass.). […] The cells were incubated for 16 hours and luciferase activity was measured using Steady-Glo® Luciferase Assay System according to the manufacturer's instructions (Promega, Madison, Wis.). […]

OMP-LU25 lung tumor = OMP-LU25 lung tumor xenograft growth; format: in vivo, NOD/SCID mice; settings: antibody 20 mg/kg weekly, paclitaxel 15 mg/kg weekly, FIG. 14
Description: In a study with a second lung tumor, dissociated OMP-LU25 lung tumor cells (5×10^4 cells) were injected into 6-8 week old NOD/SCID mice. Tumors were allowed to grow for 48 days until they reached an average volume of 110 mm^3. The mice were randomized (n=9 per group) and treated with anti-RSPO3 antibody 131R002 or a control antibody. […] Data are expressed as mean±S.E.M.
OMP-LU25 tumor cells (5×10^4) were injected into NOD-SCID mice. Tumors were allowed to grow for 33 days until they reached an average volume of 120 mm^3. Tumor-bearing mice were randomized into 4 groups (n=9 per group). Tumor-bearing mice were treated with either control antibody, anti-RSPO3 antibody 131R008, paclitaxel, or the combination of anti-RSPO3 antibody 131R008 and paclitaxel. Antibodies were dosed weekly at 20 mg/kg. Paclitaxel was dosed weekly at 15 mg/kg.

human RSPO1 = human RSPO1 (Homo sapiens, UniProt Q2MKA7); test: Binding of antibody to human RSPO1 (additional experiments)
Chain of human RSPO1 (Q2MKA7 21-263): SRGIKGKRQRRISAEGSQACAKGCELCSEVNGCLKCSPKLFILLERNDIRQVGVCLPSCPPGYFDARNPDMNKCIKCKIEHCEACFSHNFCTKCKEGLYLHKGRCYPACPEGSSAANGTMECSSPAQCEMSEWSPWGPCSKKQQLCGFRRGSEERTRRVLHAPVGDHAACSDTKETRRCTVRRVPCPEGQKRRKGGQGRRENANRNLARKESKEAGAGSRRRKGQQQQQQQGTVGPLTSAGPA
Description: (§1) The method used was different than described in Example 3. A goat anti-human IgG antibody was coupled to a carboxymethyl-dextran (CM5) SPR chip using standard amine-based chemistry (NHS/EDC) and blocked with ethanolamine. Antibodies (purified antibody or culture supernatant) were diluted to a concentration of 10 μg/ml in HBS-P-BSA (0.01M HEPES pH7.4, 0.15M NaCl, 0.005% v/v Polysorbate 20, 100 ug/ml BSA) and captured onto the chip via the anti-human IgG antibody. Human RSPO3 (R&D Systems) was serially diluted 2-fold from 300 nM to 37.5 nM in HBS-P-BSA and injected sequentially over the captured anti-RSPO3 antibodies. RSPO3 association and dissociation was measured at each concentration. After each antigen injection 5 μl of 100 mM H3P04 was injected to remove the antigen-antibody complex and a subsequent injection performed. Kinetic data were collected over time and were fit using the simultaneous global fit equation to yield affinity constants (KD values) for each antibody (Table 4).

human RSPO4 = human RSPO4 (Homo sapiens, UniProt Q2I0M5); test: Binding of antibody to human RSPO4 (additional experiments)
Chain of human RSPO4 (Q2I0M5 20-234): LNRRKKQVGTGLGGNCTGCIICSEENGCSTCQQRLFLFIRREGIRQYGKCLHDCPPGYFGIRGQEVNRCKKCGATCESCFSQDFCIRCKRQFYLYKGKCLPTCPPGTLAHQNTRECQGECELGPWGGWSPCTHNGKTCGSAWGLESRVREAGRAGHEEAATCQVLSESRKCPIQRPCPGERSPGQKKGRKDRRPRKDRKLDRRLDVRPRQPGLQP
Description: as §1

murine RSPO1 = murine RSPO1 (Mus musculus, UniProt Q9Z132); test: Binding of antibody to murine RSPO1 (additional experiments)
Chain of murine RSPO1 (Q9Z132 21-265): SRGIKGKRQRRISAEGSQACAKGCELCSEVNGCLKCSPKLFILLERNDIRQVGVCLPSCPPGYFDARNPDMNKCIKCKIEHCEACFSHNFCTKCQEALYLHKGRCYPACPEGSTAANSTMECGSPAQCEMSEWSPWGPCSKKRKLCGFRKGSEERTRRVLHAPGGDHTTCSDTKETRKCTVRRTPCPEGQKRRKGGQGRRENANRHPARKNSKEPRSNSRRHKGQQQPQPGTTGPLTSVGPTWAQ
Description: as §1

murine RSPO2 = murine RSPO2 (Mus musculus, UniProt Q8BFU0); test: Binding of antibody to murine RSPO2 (additional experiments)
Chain of murine RSPO2 (Q8BFU0 24-243): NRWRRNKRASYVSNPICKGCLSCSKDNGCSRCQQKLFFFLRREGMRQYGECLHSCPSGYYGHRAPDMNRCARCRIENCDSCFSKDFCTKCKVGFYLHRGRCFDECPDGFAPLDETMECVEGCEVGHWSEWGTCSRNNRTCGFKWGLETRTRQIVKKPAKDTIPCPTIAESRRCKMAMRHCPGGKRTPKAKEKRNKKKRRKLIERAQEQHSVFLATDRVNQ
Description: as §1

murine RSPO4 = murine RSPO4 (Mus musculus, UniProt Q8BJ73); test: Binding of antibody to murine RSPO4 (additional experiments)
Chain of murine RSPO4 (Q8BJ73 20-228): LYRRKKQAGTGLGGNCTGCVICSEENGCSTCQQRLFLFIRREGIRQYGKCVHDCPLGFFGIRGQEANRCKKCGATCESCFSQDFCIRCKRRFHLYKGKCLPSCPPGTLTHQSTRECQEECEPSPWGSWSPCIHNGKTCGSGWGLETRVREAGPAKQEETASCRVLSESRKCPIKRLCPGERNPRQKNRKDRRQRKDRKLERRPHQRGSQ
Description: as §1

Molecule	RSPO3-induced β-catenin signaling [1]	OMP-LU25 tumor growth (OMP-LU25 lung tumor)	binding to human RSPO1 (human RSPO1)	binding to human RSPO4 (human RSPO4)	binding to murine RSPO1 (murine RSPO1)	binding to murine RSPO2 (murine RSPO2)	binding to murine RSPO4 (murine RSPO4)
131R003 CDR1 variant: affinity-matured 131R003 variant with altered heavy chain CDR1 (SEQ ID NO:34) (antibody) heavy: QVQLKQSGPELVKPGASVKISCKASGYTFTSYTFHWVKQNHGKSLDWIGYIYPSNGDSGYNQKFKNRATLTVDTSYSTAYLEVRRLTFEDSAVYYCATYFANYFDYWGQGTTLTVSSASTKGPSVFPLAPCSRSTSESTAALGCLVKDYFPEPVTVSWNSGALTSGVHTFPAVLQSSGLYSLSSVVTVPSSNFGTQTYTCNVDHKPSNTKVDKTVERKCCVECPPCPAPPVAGPSVFLFPPKPKDTLMISRTPEVTCVVVDVSHEDPEVQFNWYVDGVEVHNAKTKPREEQFNSTFRVVSVLTVVHQDWLNGKEYKCKVSNKGLPAPIEKTISKTKGQPREPQVYTLPPSREEMTKNQVSLTCLVKGFYPSDIAVEWESNGQPENNYKTTPPMLDSDGSFFLYSKLTVDKSRWQQGNVFSCSVMHEALHNHYTQKSLSLSPGK light: DIVLTQSPASLAVSLGQRATISCKASQSVDYDGDSYMNWYQQKPGQPPKLLIYAASNLESGIPARFSGSGSGTDFTLNIHPVEEEDAATYYCQQSNEDPLTFGAGTKLELKRTVAAPSVFIFPPSDEQLKSGTASVVCLLNNFYPREAKVQWKVDNALQSGNSQESVTEQDSKDSTYSLSSTLTLSKADYEKHKVYACEVTHQGLSSPVTKSFNRGEC	reduced RSPO3-induced β-catenin signaling in a dose-dependent manner and at lower concentrations than parental 131R003	–	–	–	–	–	–
131R003 CDR3 variant: affinity-matured 131R003 variant with altered heavy chain CDR3 (SEQ ID NO:35); heavy chain variable region SEQ ID NO:36 (antibody) heavy: QVQLKQSGPELVKPGASVKISCKASGYTFTDYSIHWVKQNHGKSLDWIGYIYPSNGDSGYNQKFKNRATLTVDTSYSTAYLEVRRLTFEDSAVYYCATYFANNFDYWGQGTTLTVSSASTKGPSVFPLAPCSRSTSESTAALGCLVKDYFPEPVTVSWNSGALTSGVHTFPAVLQSSGLYSLSSVVTVPSSNFGTQTYTCNVDHKPSNTKVDKTVERKCCVECPPCPAPPVAGPSVFLFPPKPKDTLMISRTPEVTCVVVDVSHEDPEVQFNWYVDGVEVHNAKTKPREEQFNSTFRVVSVLTVVHQDWLNGKEYKCKVSNKGLPAPIEKTISKTKGQPREPQVYTLPPSREEMTKNQVSLTCLVKGFYPSDIAVEWESNGQPENNYKTTPPMLDSDGSFFLYSKLTVDKSRWQQGNVFSCSVMHEALHNHYTQKSLSLSPGK light: DIVLTQSPASLAVSLGQRATISCKASQSVDYDGDSYMNWYQQKPGQPPKLLIYAASNLESGIPARFSGSGSGTDFTLNIHPVEEEDAATYYCQQSNEDPLTFGAGTKLELKRTVAAPSVFIFPPSDEQLKSGTASVVCLLNNFYPREAKVQWKVDNALQSGNSQESVTEQDSKDSTYSLSSTLTLSKADYEKHKVYACEVTHQGLSSPVTKSFNRGEC	reduced RSPO3-induced β-catenin signaling in a dose-dependent manner and at lower concentrations than parental 131R003	–	–	–	–	–	–
h131R008: humanized 131R003 variant, IgG1; heavy chain SEQ ID NO:69, light chain SEQ ID NO:74 (antibody, Humanized 131R008/131R010 Heavy chain (IgG1); Humanized 131R005/131R007/131R008 Light chain) heavy: QVQLVQSGAEVKKPGASVKVSCKASGYTFTDYSIHWVRQAPGQGLEWIGYIYPSNGDSGYNQKFKNRVTMTRDTSTSTAYMELSRLRSEDTAVYYCATYFANNFDYWGQGTTLTVSSASTKGPSVFPLAPSSKSTSGGTAALGCLVKDYFPEPVTVSWNSGALTSGVHTFPAVLQSSGLYSLSSVVTVPSSSLGTQTYICNVNHKPSNTKVDKRV[… human IgG1 Fc …] light: DIVLTQSPASLAVSLGQRATITCKASQSVDYDGDSYMNWYQQKPGQPPKLLIYAASNLESGIPARFSGSGSGTDFTLTINPVEAEDVATYYCQQSNEDPLTFGAGTKLELKRTVAAPSVFIFPPSDEQLKSGTASVVCLLNNFYPREAKVQWKVDNALQSGNSQESVTEQDSKDSTYSLSSTLTLSKADYEKHKVYACEVTHQGLSSPVTKSFNRGEC	–	inhibited OMP-LU25 tumor growth as a single agent	no detectable binding	weak binding	no detectable binding	no detectable binding	weak binding
